Reference: the supplement of paper PMC11417369
± gives the standard deviation of the averaged measurements. Some of the results follow.

system: PfAP2-I AP2 domain 3 (GST-tagged); assay: gcPBM binding intensity (ln(normalized median fluorescence intensity)); higher = stronger DNA binding
Outline: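 After 1 h on an Agilent 4 × 180k array of primer-extended double-stranded 36-bp intergenic genomic probes and negative controls, bound GST-tagged P. falciparum DNA-binding domains were detected with Alexa488 anti-GST antibody and scanned at 488 nm. The domains had been expressed in E. coli, and binding took place in 1× PBS with 1% milk, 0.2 mg/ml BSA, 0.5% salmon testes DNA and 0.03% Triton X-100. Binding intensity is the highest Masliner-normalised natural-log median intensity across replicate spots of either probe orientation.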

Sequence | gcPBM binding intensity (ln)
AAAAAAAACAGACACACACACATAAATATATATAAA [CACACA_site148] | 7.75 ± 0.54
TAAATAATTTATAAGTGTACTATTATTGCACGAATA [XGTACX_site7715] | 11.1 ± 0.57
ATGATTTTTTCTGTATGTACATAAAAATAAAATTCT [XGTACX_site5698] | 7.84 ± 0.28
CATTAGGTCTTTTGTACATGCAAGTGTGTGCGTAAA [TGCATGCA_site255] | 9.44 ± 0.51
TTGTTTATTTTTTATTACTATAAAGATGTTATATAT [CACACA_negctrl_site1506] | 7.71 ± 0.54
ATAATATCTTTATGTGTGCACATATATATATATATA | 10.15 ± 0.035
TATATAAATATATATGTACACACATATACATGTTGA [CACACA_site9022] | 7.67 ± 0.26
AAAATTTAATATAATGCACACATAAAAAAAAAAAAT [CACACA_site8425] | 11.1 ± 1
TATAATATAATATATGCACACAAATATGTATATATG [CACACA_site8664] | 8.86 ± 0.085
AACTATATATAACTAGTGCAAAGACAATATTTTAAA | 9.355 ± 0.092
TTCTTTAAAATAAATTGTACTAACATATATATATAT [XGTACX_site6045] | 9.34 ± 0.8
AAGAATAATAACAAATGTACTTATATAAAGTATTAT [XGTACX_site2336] | 7.7 ± 0.6
TAATTAAATATTTTCCTACAATTAATAAGAAAAGGA [XGTACX_negctrl_site565] | 7.48 ± 0.4
TTTTCCTTTTTGGAATGTACACATATATATTAAATG [XGTACX_site4700] | 7.53 ± 0.55
AAATATAATATATGCACACATACATACATATATATA [CACACA_site104] | 9.41 ± 0.3
TATTAAGAAGAAAATTCACACATTTGTACCTCTCTT [CACACA_site4822] | 7.64 ± 0.34
CAGCTCTTAAAAATTACACACATATACGCATATATA [CACACA_site3267] | 7.62 ± 0.58
TATAAATAGATATATACACACATGAAAATAAATAAA [CACACA_site7228] | 7.63 ± 0.54
TTACAAAAATGTGGTTGTACACAAACAAAAAAAATA [XGTACX_site8506] | 8.35 ± 0.29

Sequence | gcPBM binding intensity (ln)
GAAAATAGCTAAAATACACACAATTAAAAGTTATTA [CACACA_site7614] | 7.43 ± 0.27
TTTTTTTTTTTTTGGTTCACACTGAAAAGAGAGATA [GTGCAC_negctrl_site439] | 8.1 ± 0.82
TTTCAAACTGTTCTCACACACGAAATTAGAAATGAA [CACACA_site4509] | 7.88 ± 0.27
AAAACAAAATAGGGAACACACACATGTCAATATATA [CACACA_site8834] | 7.75 ± 0.61
TTTTGTTATTTTGAAGTGCACTTTCCACTTAATATA | 10.8 ± 0.13
CAATCATGGTTTTACACACACATGCATGTGAAAATT [CACACA_site4870] | 7.87 ± 0.53
TCATGTTTTACAAAAACACACAAATGAATATAAACA [CACACA_site4775] | 7.92 ± 0.42
TCGAATTTGGAAAGAAGTACATGAAGCCAACATATG [XGTACX_site5222] | 7.88 ± 0.48
AATAAATAAAAATTATGTACATATATAAAAAATACA [XGTACX_site8581] | 7.95 ± 0.48
TATATACATAGACACCCACACACAAAAAAAAAAAAA [CACACA_site8186] | 8.01 ± 0.72
AAAACATACCTATATACACACATATAAATATAAATA [CACACA_site6956] | 7.81 ± 0.38
TTTGATATAGAAAGAGCATGCAAGTTAGATAAAATA [TGCATGCA_site470] | 7.94 ± 0.71
AATAAATTATTATGTACACACATAATAGTATATATA [CACACA_site1820] | 7.71 ± 0.33
TATATATTAATATACACACACACATATATATATATA [CACACA_site1608] | 9.22 ± 0.38
AACATGTTAAAATAAACACACAGCTAAGGTTTTTTT [CACACA_site157] | 7.4 ± 0.69
AAAAAAAAAAAAAAATGTACAAATAGTAGTTACAGA [XGTACX_site2531] | 8.11 ± 0.4
ATAATATATGTATATCCACACACATATATATATATA [CACACA_site8471] | 9.17 ± 0.55
ATTTAAGATTTAATCACACACATATATATTATATAC [CACACA_site2907] | 7.64 ± 0.54
GCAAATGTGAAAACGTGTACACATTTTATTTAATTT [XGTACX_site8000] | 7.91 ± 0.42

Sequence | gcPBM binding intensity (ln)
TATTTGTAAATCGATACACACATATATATTAATATA [CACACA_site196] | 7.63 ± 0.25
AAATGTAGATATTATCGTACACATATATTTATATAT [XGTACX_site6326] | 7.71 ± 0.4
TAAAAAATAAATATATGTACGCAATAAATGTGTTAA [XGTACX_site4043] | 7.83 ± 0.11
ACACATATGCATATATGTACATAATATATTAAACTT [XGTACX_site5975] | 7.81 ± 0.45
AAAAAAAAAAGACACACACACACACTAATACATACA [CACACA_site6473] | 7.88 ± 0.26
ATGTTTTACAAAAACACACAAATGAATATAAACATA [CACACA_site6667] | 7.58 ± 0.66
AAATATATATGTATATGTACTTATTTATTTAAAAGG [XGTACX_site4093] | 7.58 ± 0.51
TTTATTATATATAAAAGTACACATTGTAAGGAAACA [XGTACX_site8560] | 8.2 ± 0.39
AAAAGTGATGAGACAAGTACTAACATATTATTATTA [XGTACX_site1533] | 7.58 ± 0.6
TTTTCTGTATAAACTTGTACATATATTTCCTTGTTT [XGTACX_site5745] | 7.87 ± 0.59
ATACCTATTTGATGAGTGCATTATCCAATATATGTA | 11.3 ± 0.65
ATATGTTCTACAAAAAAGATGTCGATTTATTTTCTT [CACACA_negctrl_site1179] | 7.51 ± 0.69
AAATAAAATATCAATTAAAACAGAATTGAATTTTTA [CACACA_negctrl_site181] | 7.21 ± 0.53
TATAAAATGACTATATATAATATTAAAAAAAAAAAA [TGCATGCA_negctrl_site387] | 7.76 ± 0.54
ATTATATATACATAATGTACATATATATATTACCTT [XGTACX_site7624] | 7.8 ± 0.52
TAAATTAAGAATTTTACACACATTAAATAAAAAAAA [CACACA_site3638] | 7.62 ± 0.52
AAAAAAAAAAAAAATTCACACACATATAAAAAATTA [CACACA_site8140] | 7.81 ± 0.34
AAATTAGGAAATTGCACACAAAAAAAAACATATTAT [CACACA_site4074] | 8.57 ± 0.12
TTTTTTTATTTTTTTATAAATGTATTTCTATTATTT [CACACA_negctrl_site1562] | 7.48 ± 0.68
